Patent US20170368082A1, “FORMULATIONS OF BRINCIDOFOVIR” (priority 2016, published 2017)
Further values from the same series stand in other lists.

Experiment: Tissue distribution by quantitative whole-body autoradiography (QWBA)
Format: in vivo, male Sprague Dawley and Long-Evans rats
Conditions: 15 mg/kg IV
Method: The study utilized 4 groups of male SD rats (albino), and 3 groups of male LE rats (pigmented); a total of 39 rats. All animals were obtained from Hilltop Lab Animals, Inc. (Scottdale, Pa.). […] Rats in Group 5 were administered a single 2-h IV infusion of [^14C]brincidofovir at a target dose of 2 mg/kg. […] Three dosing formulations (one for high dose IV, one for low dose IV, and one for PO dose) were prepared at QPS on the day of dosing. The IV formulation for Groups 1, 2, 3, and 4 contained a vehicle of 10 mM sodium phosphate buffer in 5% dextrose solution at pH 8.0(±0.1).
Each animal, at their respective termination time points, was euthanized for QWBA analysis immediately after blood collection. One rat per time point per Group was euthanized as listed below.
The blood samples were maintained on wet ice (approximately 4° C.) and then centrifuged to obtain plasma within 1 h of the blood collection time. Centrifuge settings were recorded in the study notebook. Duplicate aliquots of plasma (0.050 mL) were analyzed for radioactivity using direct counting by LSC, and residual plasma was stored at approximately −70° C. and was saved for possible future analysis under a separate study protocol. Residual red blood cells were discarded as radioactive waste.
The pinna, distal limbs, hair, and tail were removed from each frozen carcass and each frozen carcass was embedded in an aqueous suspension of approximately 2% (w/v) carboxymethylcellulose and frozen into a block. The blocks were stored at approximately −20° C. prior to sectioning. Each blocked carcass was mounted on the object stage of a cryomicrotome (Leica CM3600 Cryomacrocut, Nussloch, Germany and Vibratome 9800, St. Louis, Mo.) maintained at approximately −20° C. and internal standards (3), which were plasma fortified with [^14C]-glucose at one concentration (approximately 0.05 μCi/mL), were placed into the frozen blocks, prior to sectioning, and were used for section thickness quality control. A number of whole-body sections (approximately 40 μm thick) were taken in the sagittal plane at various levels of interest using a whole-body cryomicrotome set at −20° C. Sagittal sections (20-50 μm thick) of frozen carcasses were exposed to phosphor imaging plates. Regions of images in tissues were converted to concentrations using standards. All of the major tissues, organs, and biological fluids were represented.
Tissue concentration data was determined for the following tissues and/or contents: adipose (brown and white), adrenal gland, bile (in duct), blood (cardiac), bone, bone marrow, brain (cerebrum, cerebellum, medulla), cecum (and contents), large intestine (and contents), epididymis, esophagus, eye (uvea and lens), Harderian gland, heart, kidney (cortex and medulla), liver, lung, lymph node, pancreas, pituitary gland, prostate gland, salivary gland, seminal vesicles, skeletal muscle, skin (pigmented and non-pigmented), small intestine (and contents), stomach (gastric mucosa and contents), spleen, spinal cord, testis, thymus, thyroid, and urinary bladder (and contents).
The imaging plate and sections were placed in light-tight exposure cassettes, in a copper-lined lead safe, for a 4-day exposure at room temperature. […] Quantification was performed by image densitometry using MCD image analysis software (v. 7.0, Interfocus Imaging Ltd) and a standard curve constructed from the integrated response [i.e., Molecular Dynamics Counts per square millimeter (MDC/mm^2)] and the nominal concentrations of the ^14C-calibration standards. The concentrations of radioactivity were expressed as the μg equivalents of [^14C]brincidofovir per gram sample (μg equiv/g). A lower limit of quantification (LLOQ) was applied to the data (See section 6.7.4).
Tissue concentrations that fell below the LLOQ were identified as being below the quantification limit (BQL). Tissue areas that were not visualized on autoradiographic images were identified as no sample (NS) and reported as BQL.

CCCCCCCCCCCCCCCCOCCCOP(=O)(O)CO[C@H](CO)Cn1ccc(N)nc1=O [[^14C]brincidofovir]
Concentration of radioactivity (Adipose (brown), 1 h, LE rat): 0.839 μg equiv/g tissue | Concentration of radioactivity (Adipose (brown), 2 h, LE rat): 1.680 μg equiv/g tissue | Concentration of radioactivity (Adipose (brown), 4 h, LE rat): 1.123 μg equiv/g tissue | Concentration of radioactivity (Adipose (brown), 8 h, LE rat): 0.755 μg equiv/g tissue | Concentration of radioactivity (Adipose (brown), 24 h, LE rat): 0.306 μg equiv/g tissue | Concentration of radioactivity (Adipose (brown), 72 h, LE rat): 0.402 μg equiv/g tissue | Concentration of radioactivity (Adipose (brown), 96 h, LE rat): 0.187 μg equiv/g tissue | Concentration of radioactivity (Adipose (brown), 168 h, LE rat): 0.132 μg equiv/g tissue | Concentration of radioactivity (Adipose (brown), 840 h, LE rat): BQL (BQL = Value is below the LLOQ) | Concentration of radioactivity (Adipose (white), 1 h, LE rat): 0.369 μg equiv/g tissue | Concentration of radioactivity (Adipose (white), 2 h, LE rat): 0.365 μg equiv/g tissue | Concentration of radioactivity (Adipose (white), 4 h, LE rat): 0.317 μg equiv/g tissue | Concentration of radioactivity (Adipose (white), 8 h, LE rat): 0.124 μg equiv/g tissue | Concentration of radioactivity (Adipose (white), 24 h, LE rat): 0.058 μg equiv/g tissue | Concentration of radioactivity (Adipose (white), 72 h, LE rat): 0.062 μg equiv/g tissue | Concentration of radioactivity (Adipose (white), 96 h, LE rat): BQL (BQL = Value is below the LLOQ) | Concentration of radioactivity (Adipose (white), 168 h, LE rat): BQL (BQL = Value is below the LLOQ) | Concentration of radioactivity (Adipose (white), 840 h, LE rat): BQL (BQL = Value is below the LLOQ) | Concentration of radioactivity (Adrenal Gland, 1 h, LE rat): 2.523 μg equiv/g tissue | Concentration of radioactivity (Adrenal Gland, 2 h, LE rat): 4.802 μg equiv/g tissue | Concentration of radioactivity (Adrenal Gland, 4 h, LE rat): 3.282 μg equiv/g tissue | Concentration of radioactivity (Adrenal Gland, 8 h, LE rat): 3.179 μg equiv/g tissue | Concentration of radioactivity (Adrenal Gland, 24 h, LE rat): 1.253 μg equiv/g tissue | Concentration of radioactivity (Adrenal Gland, 72 h, LE rat): 1.186 μg equiv/g tissue | Concentration of radioactivity (Adrenal Gland, 96 h, LE rat): 0.776 μg equiv/g tissue | Concentration of radioactivity (Adrenal Gland, 168 h, LE rat): 0.490 μg equiv/g tissue | Concentration of radioactivity (Adrenal Gland, 840 h, LE rat): 0.091 μg equiv/g tissue | Concentration of radioactivity (Bile (in duct), 1 h, LE rat): 243.705 μg equiv/g tissue | Concentration of radioactivity (Bile (in duct), 2 h, LE rat): 508.358 μg equiv/g tissue | Concentration of radioactivity (Bile (in duct), 4 h, LE rat): 178.597 μg equiv/g tissue | Concentration of radioactivity (Bile (in duct), 8 h, LE rat): BQL (BQL = Value is below the LLOQ) | Concentration of radioactivity (Bile (in duct), 24 h, LE rat): 1.010 μg equiv/g tissue | Concentration of radioactivity (Bile (in duct), 72 h, LE rat): 0.526 μg equiv/g tissue | Concentration of radioactivity (Bile (in duct), 96 h, LE rat): 0.044 μg equiv/g tissue | Concentration of radioactivity (Bile (in duct), 168 h, LE rat): BQL (BQL = Value is below the LLOQ) | Concentration of radioactivity (Bile (in duct), 840 h, LE rat): BQL (BQL = Value is below the LLOQ) | Concentration of radioactivity (Blood (cardiac), 1 h, LE rat): 3.040 μg equiv/g tissue | Concentration of radioactivity (Blood (cardiac), 2 h, LE rat): 5.291 μg equiv/g tissue | Concentration of radioactivity (Blood (cardiac), 4 h, LE rat): 2.839 μg equiv/g tissue | Concentration of radioactivity (Blood (cardiac), 8 h, LE rat): 1.679 μg equiv/g tissue | Concentration of radioactivity (Blood (cardiac), 24 h, LE rat): 0.225 μg equiv/g tissue | Concentration of radioactivity (Blood (cardiac), 72 h, LE rat): 0.052 μg equiv/g tissue | Concentration of radioactivity (Blood (cardiac), 96 h, LE rat): BQL (BQL = Value is below the LLOQ) | Concentration of radioactivity (Blood (cardiac), 168 h, LE rat): BQL (BQL = Value is below the LLOQ) | Concentration of radioactivity (Blood (cardiac), 840 h, LE rat): BQL (BQL = Value is below the LLOQ) | Concentration of radioactivity (Bone Marrow, 1 h, LE rat): 1.464 μg equiv/g tissue | Concentration of radioactivity (Bone Marrow, 2 h, LE rat): 3.348 μg equiv/g tissue | Concentration of radioactivity (Bone Marrow, 4 h, LE rat): 2.550 μg equiv/g tissue | Concentration of radioactivity (Bone Marrow, 8 h, LE rat): 2.045 μg equiv/g tissue | Concentration of radioactivity (Bone Marrow, 24 h, LE rat): 0.898 μg equiv/g tissue | Concentration of radioactivity (Bone Marrow, 72 h, LE rat): 0.552 μg equiv/g tissue | Concentration of radioactivity (Bone Marrow, 96 h, LE rat): 0.280 μg equiv/g tissue | Concentration of radioactivity (Bone Marrow, 168 h, LE rat): 0.232 μg equiv/g tissue | Concentration of radioactivity (Bone Marrow, 840 h, LE rat): 0.043 μg equiv/g tissue | Concentration of radioactivity (Bone, 1 h, LE rat): 0.130 μg equiv/g tissue | Concentration of radioactivity (Bone, 2 h, LE rat): 0.257 μg equiv/g tissue | Concentration of radioactivity (Bone, 4 h, LE rat): 0.183 μg equiv/g tissue | Concentration of radioactivity (Bone, 8 h, LE rat): 0.190 μg equiv/g tissue | Concentration of radioactivity (Bone, 24 h, LE rat): BQL (BQL = Value is below the LLOQ) | Concentration of radioactivity (Bone, 72 h, LE rat): 0.036 μg equiv/g tissue | Concentration of radioactivity (Bone, 96 h, LE rat): 0.040 μg equiv/g tissue | Concentration of radioactivity (Bone, 168 h, LE rat): BQL (BQL = Value is below the LLOQ) | Concentration of radioactivity (Bone, 840 h, LE rat): BQL (BQL = Value is below the LLOQ) | Concentration of radioactivity (Brain (cerebellum), 1 h, LE rat): 0.569 μg equiv/g tissue | Concentration of radioactivity (Brain (cerebellum), 2 h, LE rat): 1.144 μg equiv/g tissue | Concentration of radioactivity (Brain (cerebellum), 4 h, LE rat): 0.422 μg equiv/g tissue | Concentration of radioactivity (Brain (cerebellum), 8 h, LE rat): 0.284 μg equiv/g tissue | Concentration of radioactivity (Brain (cerebellum), 24 h, LE rat): 0.099 μg equiv/g tissue | Concentration of radioactivity (Brain (cerebellum), 72 h, LE rat): 0.073 μg equiv/g tissue | Concentration of radioactivity (Brain (cerebellum), 96 h, LE rat): BQL (BQL = Value is below the LLOQ) | Concentration of radioactivity (Brain (cerebellum), 168 h, LE rat): BQL (BQL = Value is below the LLOQ) | Concentration of radioactivity (Brain (cerebellum), 840 h, LE rat): BQL (BQL = Value is below the LLOQ) | Concentration of radioactivity (Brain (cerebrum), 1 h, LE rat): 0.391 μg equiv/g tissue | Concentration of radioactivity (Brain (cerebrum), 2 h, LE rat): 0.887 μg equiv/g tissue | Concentration of radioactivity (Brain (cerebrum), 4 h, LE rat): 0.341 μg equiv/g tissue | Concentration of radioactivity (Brain (cerebrum), 8 h, LE rat): 0.196 μg equiv/g tissue | Concentration of radioactivity (Brain (cerebrum), 24 h, LE rat): 0.070 μg equiv/g tissue | Concentration of radioactivity (Brain (cerebrum), 72 h, LE rat): 0.062 μg equiv/g tissue | Concentration of radioactivity (Brain (cerebrum), 96 h, LE rat): BQL (BQL = Value is below the LLOQ) | Concentration of radioactivity (Brain (cerebrum), 168 h, LE rat): BQL (BQL = Value is below the LLOQ) | Concentration of radioactivity (Brain (cerebrum), 840 h, LE rat): BQL (BQL = Value is below the LLOQ) | Concentration of radioactivity (Brain (medulla), 1 h, LE rat): 0.498 μg equiv/g tissue | Concentration of radioactivity (Brain (medulla), 2 h, LE rat): 0.858 μg equiv/g tissue | Concentration of radioactivity (Brain (medulla), 4 h, LE rat): 0.376 μg equiv/g tissue | Concentration of radioactivity (Brain (medulla), 8 h, LE rat): 0.199 μg equiv/g tissue | Concentration of radioactivity (Brain (medulla), 24 h, LE rat): 0.085 μg equiv/g tissue | Concentration of radioactivity (Brain (medulla), 72 h, LE rat): 0.059 μg equiv/g tissue | Concentration of radioactivity (Brain (medulla), 96 h, LE rat): BQL (BQL = Value is below the LLOQ) | Concentration of radioactivity (Brain (medulla), 168 h, LE rat): BQL (BQL = Value is below the LLOQ) | Concentration of radioactivity (Brain (medulla), 840 h, LE rat): BQL (BQL = Value is below the LLOQ) | Concentration of radioactivity (Cecum (contents), 1 h, LE rat): 0.099 μg equiv/g tissue | Concentration of radioactivity (Cecum (contents), 2 h, LE rat): 1.065 μg equiv/g tissue | Concentration of radioactivity (Cecum (contents), 4 h, LE rat): 42.166 μg equiv/g tissue | Concentration of radioactivity (Cecum (contents), 8 h, LE rat): 175.858 μg equiv/g tissue | Concentration of radioactivity (Cecum (contents), 24 h, LE rat): 30.022 μg equiv/g tissue | Concentration of radioactivity (Cecum (contents), 72 h, LE rat): 1.987 μg equiv/g tissue | Concentration of radioactivity (Cecum (contents), 96 h, LE rat): 0.159 μg equiv/g tissue | Concentration of radioactivity (Cecum (contents), 168 h, LE rat): 0.123 μg equiv/g tissue | Concentration of radioactivity (Cecum (contents), 168 h, SD rat): 0.196 μg equiv./g | Concentration of radioactivity (Cecum (contents), 840 h, LE rat): BQL (BQL = Value is below the LLOQ) | Concentration of radioactivity (Cecum, 1 h, LE rat): 1.781 μg equiv/g tissue | Concentration of radioactivity (Cecum, 2 h, LE rat): 3.052 μg equiv/g tissue | Concentration of radioactivity (Cecum, 4 h, LE rat): 2.443 μg equiv/g tissue | Concentration of radioactivity (Cecum, 8 h, LE rat): 6.189 μg equiv/g tissue | Concentration of radioactivity (Cecum, 24 h, LE rat): 7.077 μg equiv/g tissue | Concentration of radioactivity (Cecum, 72 h, LE rat): 0.527 μg equiv/g tissue | Concentration of radioactivity (Cecum, 96 h, LE rat): 0.208 μg equiv/g tissue | Concentration of radioactivity (Cecum, 168 h, LE rat): 0.080 μg equiv/g tissue | Concentration of radioactivity (Cecum, 840 h, LE rat): BQL (BQL = Value is below the LLOQ)
